Assay [1] has as its target T1, endogenous MIZ-1 of lymphoblastoid cell lines (human (endogenous in LCL)) (UniProt Q13105).
T1 sequence: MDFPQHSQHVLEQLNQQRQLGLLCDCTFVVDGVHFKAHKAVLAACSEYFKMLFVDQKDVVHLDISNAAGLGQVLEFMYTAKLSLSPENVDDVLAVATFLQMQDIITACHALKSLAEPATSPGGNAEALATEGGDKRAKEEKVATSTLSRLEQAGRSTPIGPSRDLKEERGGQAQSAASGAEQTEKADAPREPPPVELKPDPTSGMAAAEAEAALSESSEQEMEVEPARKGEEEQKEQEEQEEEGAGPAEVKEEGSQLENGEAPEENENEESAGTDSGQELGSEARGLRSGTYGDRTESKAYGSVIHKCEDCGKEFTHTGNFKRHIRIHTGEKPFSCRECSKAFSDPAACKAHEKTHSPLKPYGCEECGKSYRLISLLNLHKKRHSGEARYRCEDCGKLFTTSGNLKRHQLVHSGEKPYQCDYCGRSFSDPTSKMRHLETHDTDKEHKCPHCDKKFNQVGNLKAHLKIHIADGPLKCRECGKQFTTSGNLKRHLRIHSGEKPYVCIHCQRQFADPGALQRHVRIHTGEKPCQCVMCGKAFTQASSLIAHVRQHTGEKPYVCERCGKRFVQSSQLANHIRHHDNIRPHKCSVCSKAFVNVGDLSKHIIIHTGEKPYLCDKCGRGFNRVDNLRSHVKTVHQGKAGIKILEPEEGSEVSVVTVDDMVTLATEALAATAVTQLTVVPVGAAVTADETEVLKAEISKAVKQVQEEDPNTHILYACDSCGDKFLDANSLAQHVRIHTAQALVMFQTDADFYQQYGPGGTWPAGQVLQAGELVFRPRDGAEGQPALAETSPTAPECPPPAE
The assay can be described thus: oligonucleotide pull-down; data not shown; oligo pull-down as for EBNA3A.

Assay [2] has as its target T2, Flag-EBNA3A (Epstein–Barr virus) (UniProt P12977).
T2 sequence: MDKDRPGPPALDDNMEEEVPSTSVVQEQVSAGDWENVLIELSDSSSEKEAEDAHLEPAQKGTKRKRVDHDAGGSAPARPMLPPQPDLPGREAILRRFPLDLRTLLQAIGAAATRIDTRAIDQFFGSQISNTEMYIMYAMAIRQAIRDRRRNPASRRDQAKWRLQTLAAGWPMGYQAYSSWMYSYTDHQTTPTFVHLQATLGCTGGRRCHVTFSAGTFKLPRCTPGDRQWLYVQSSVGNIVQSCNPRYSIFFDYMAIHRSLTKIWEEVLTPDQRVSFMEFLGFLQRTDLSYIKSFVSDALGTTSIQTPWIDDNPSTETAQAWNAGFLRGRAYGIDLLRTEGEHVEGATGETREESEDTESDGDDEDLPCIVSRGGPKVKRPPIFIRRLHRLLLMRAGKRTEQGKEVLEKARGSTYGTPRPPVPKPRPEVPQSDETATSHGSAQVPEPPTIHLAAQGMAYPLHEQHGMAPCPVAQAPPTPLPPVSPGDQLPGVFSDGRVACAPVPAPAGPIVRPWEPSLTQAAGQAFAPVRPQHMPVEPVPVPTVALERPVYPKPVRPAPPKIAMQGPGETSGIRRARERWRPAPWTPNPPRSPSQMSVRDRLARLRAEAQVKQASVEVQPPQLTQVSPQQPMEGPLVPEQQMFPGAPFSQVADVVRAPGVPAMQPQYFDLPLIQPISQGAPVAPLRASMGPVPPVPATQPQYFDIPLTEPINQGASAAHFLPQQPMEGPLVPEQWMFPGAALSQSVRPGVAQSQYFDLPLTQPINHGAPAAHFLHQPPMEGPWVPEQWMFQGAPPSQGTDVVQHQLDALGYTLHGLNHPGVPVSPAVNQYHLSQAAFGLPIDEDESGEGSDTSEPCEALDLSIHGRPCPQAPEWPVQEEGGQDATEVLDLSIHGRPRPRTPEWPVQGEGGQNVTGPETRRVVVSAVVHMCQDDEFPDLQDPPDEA
Put plainly: co-IP.

Assay [3] concerns the target Flag-EBNA3C (Epstein–Barr virus) (UniProt P03204). Put plainly: co-IP.
Assay [4] addresses Flag-EBNA3B (Epstein–Barr virus) (UniProt P03203). The assay can be described thus: co-IP.
In assay [5] the target is T3, endogenous EBNA3A of a lymphoblastoid cell line (Epstein–Barr virus (endogenous in EBV-infected human LCL)) (UniProt P12977).
T3 sequence: T2 sequence
Put plainly: co-IP; endogenous proteins from a lymphoblastoid cell line extract; IP with anti-EBNA3A or anti-MIZ-1 polyclonal antibodies, anti-Flag antibody as control; western blot. A general note: A western blot detects proteins with antibodies after separation by electrophoresis.

The target of assay [6] is GST-MIZ-1 383–803 (human) (UniProt Q13105). Put plainly: pull-down; GST or GST fusion on glutathione-Sepharose 4B beads incubated with 35S-labeled in vitro translated protein; 10 mM Tris-HCl pH 8, 250 mM NaCl, 0.1% NP40, 2 mg/ml BSA, 4 h at 4°C; autoradiography; only the target purified.
Assay [7] addresses Flag-MIZ-1 POZ domain (aa 1–104) (human) (UniProt Q13105). The assay can be described thus: co-IP.
Assay [8] has as its target T4, Flag-MIZ-1 (full-length) (human) (UniProt Q13105).
T4 sequence: T1 sequence
Put plainly: co-IP.

In assay [9] the target is Flag-MIZ-1 with the domain between aa 638 and 716 deleted (human) (UniProt Q13105). Put plainly: co-IP.
Assay [10] has as its target T1, endogenous MIZ-1 of lymphoblastoid cell lines (human (endogenous in LCL)). Put plainly: co-IP; endogenous proteins from a lymphoblastoid cell line extract; IP with anti-EBNA3A or anti-MIZ-1 polyclonal antibodies, anti-Flag antibody as control; western blot.
Assay [11] has the same target. The assay can be described thus: oligonucleotide pull-down; whole LCLwt extract with biotinylated double-stranded oligonucleotide carrying the Inr of the CDKN2B promoter (or a mutated control), streptavidin-agarose beads; HKMG buffer, 16 h at 4°C; western blot.

These results are taken from PMC4150796.

Results are given in words; binding and its absence hold for the method and conditions named. Binding seen in cells or lysates may run through a third protein. Some binding calls cover weakened binding; strength is not graded here. For some assays here: Tags and fused reporters may be left off the sequences shown.

For the molecule “endogenous EBNA3C of a lymphoblastoid cell line (from UniProt P03204 1-992)”, the binding entry in assay [1] is recorded as “binds”.

B1: full-length MIZ-1 (FL-MIZ-1) tagged with a Myc epitope (protein, UniProt Q13105 1-803)
chain: T1 sequence
For the molecule B1, the binding entry in assay [2], in assay [3] and in [4] was “binds” throughout.

B2: endogenous MIZ-1 of lymphoblastoid cell lines (protein, UniProt Q13105 1-803)
chain: T1 sequence
As for B2, the binding entry in [5] is “binds”.

B3: 35S-labeled EBNA3A, in vitro translated (protein, UniProt P12977 1-944)
chain: T2 sequence
modifications: 35S-methionine
For the molecule B3, in assay [6], the binding entry is recorded as “binds”.

B4: Myc-EBNA3A (protein, UniProt P12977 1-944)
chain: T2 sequence
As to B4, the binding entry in assay [7], in assay [8] and in [9] was “binds” throughout.

B5: endogenous EBNA3A of a lymphoblastoid cell line (protein, UniProt P12977 1-944)
chain: T2 sequence
B5: the binding entry in assay [10] and in [11] was “binds” throughout.
